# Results: PubChem BioAssay AID624417 (National Center for Advancing Translational Sciences (NCATS), 2012)
# Screen size: about 410,000 compounds; about 6,400 (1.6%) were called active. The shares of active, inactive and inconclusive entries below differ from those in the screen. The call rests on the fitted dose curve; in most records, active means well fitted inhibition curve with a large enough effect; inconclusive means small, poorly fitted or top-dose-only effect; inactive means no such curve, though single readings can be large or run the other way. No potency is given beside an inconclusive call; the fits are too rough.
# Target: Glucagon-like peptide 1 receptor (Homo sapiens) (UniProt P43220)
# Experiment: qHTS of GLP-1 Receptor Inverse Agonists (Inhibition Mode); further: nearly all actives have a fitted effect of over 55% in size
# Conditions: HEK293 GLP-1R CRE-luciferase, luminescence, 24 h, GLP-1R form is constitutively active; activity change, negative = inhibition: at 38.3 µM (top of the series) unless noted
# Summary of the method: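 HEK293 cells stably co-expressing constitutively active GLP-1R and a cAMP-responsive luciferase reporter were seeded in DMEM with 10% Nu serum, given compounds after 12 h, and incubated 24 h at 37 deg C. Luminescence was then read.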
# On the % scale 0 is the no-effect control and ±100 the full control effect; potency means the concentration at half of the fitted maximal effect; tags describe the fitted curve by direction and shape.
# Sequence of UniProt P43220 (P43220 whole entry, looked up): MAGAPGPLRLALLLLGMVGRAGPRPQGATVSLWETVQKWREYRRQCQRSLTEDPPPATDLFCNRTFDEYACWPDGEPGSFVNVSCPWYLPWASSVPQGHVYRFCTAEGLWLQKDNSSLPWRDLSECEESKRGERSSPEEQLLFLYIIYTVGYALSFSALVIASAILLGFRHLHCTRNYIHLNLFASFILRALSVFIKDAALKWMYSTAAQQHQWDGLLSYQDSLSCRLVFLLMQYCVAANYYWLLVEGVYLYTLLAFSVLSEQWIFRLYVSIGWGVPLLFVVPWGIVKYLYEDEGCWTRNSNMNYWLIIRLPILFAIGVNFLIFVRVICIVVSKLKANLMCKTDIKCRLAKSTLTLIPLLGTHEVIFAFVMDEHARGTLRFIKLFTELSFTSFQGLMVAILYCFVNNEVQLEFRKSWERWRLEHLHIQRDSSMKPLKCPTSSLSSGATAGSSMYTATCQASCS
Compound,Potency,"activity change, negative = inhibition"
Cc1cccc(NC(=O)c2ccc(COc3ccccc3[N+](=O)[O-])o2)n1,"inconclusive [inhibitor, partial curve]",–
N#Cc1ccc(CSc2ccccn2)c(Cl)c1,"inconclusive [inhibitor, single point]",–
COc1ccc(C(=O)n2nc(-c3ccco3)nc2NCc2cccs2)cc1,–,inactive: 10.8%
COc1ccc(-c2nc(C(=O)NCC3CCCO3)cc3c2[nH]c2ccccc23)cc1 (stereo not drawn),active: 10 µM,–
Cc1ccc2c(C(=O)CN3CCN(C4CCCCC4)CC3)c(C)[nH]c2c1,"inconclusive [inhibitor, full curve, poor fit]",–
Cc1c(C)n(Cc2ccccc2)c2ncnc(NCCCN(C)C)c12,"inconclusive [inhibitor, single point]",–
C=CCn1c(SCC(=O)NCC(c2ccccc2)N(C)C)nc2sc3c(c2c1=O)CCC3 (stereo not drawn),"inconclusive [inhibitor, partial curve, poor fit]",–
C=Cc1ccc(CN2C(=O)N(c3cccc(Cl)c3)S(=O)(=O)c3ccccc32)cc1,"inconclusive [inhibitor, single point]",–
CC(C)c1ccc(S(=O)(=O)N2CCN(C(=O)c3cccc(F)c3)CC2)cc1,"inconclusive [inhibitor, single point]",–
CC(O)(c1ccccc1)C(C(c1ccccc1)N1CCOCC1)N1CCOCC1 (stereo not drawn),–,inactive: 8.38%
CCOC(=O)C1=CCN(S(=O)(=O)c2ccccc2Br)C1c1cccc(Cl)c1 (stereo not drawn),"inconclusive [inhibitor, single point]",–
Cc1ccc(-c2nc(SCC(=O)NCC3CCCO3)c(-c3ccccc3)[nH]2)cc1 (stereo not drawn),"inconclusive [inhibitor, partial curve, poor fit]",–
Cc1ccc(S(=O)(=O)N2CCC(C(=O)NCc3ccccc3CN3CCCC3)CC2)cc1,"inconclusive [inhibitor, single point]",–
Cc1ccc(-c2nnc(Nc3ccc(CC(N)=O)cc3)c3ccccc23)cc1S(N)(=O)=O,–,inactive: 18.2%
CN(C)c1ccc(N/C=C/C(=O)c2ccccc2)cc1,"inconclusive [inhibitor, single point]",–
Cc1nn(-c2ccccc2)c(C)c1C(=O)OC(C)C(=O)NC1CCCCC1C (stereo not drawn),"inconclusive [inhibitor, partial curve, poor fit]",–
Cc1ccc(CN(C)C(=O)c2ccccc2NC(=O)c2ccccc2)o1,–,inactive: -27.2%
C/C(=N\NC(=O)C1CCCN(S(=O)(=O)c2ccccc2)C1)c1ccccn1 (stereo not drawn),"inconclusive [inhibitor, partial curve, poor fit]",–
